Test results: PubChem BioAssay AID624296 (National Center for Advancing Translational Sciences (NCATS), 2012)
Screen size: about 350,000 compounds; about 9,900 (2.8%) were called active. Inconclusive means that the source gave no clear call. Such entries were picked first, then a sample of the others. The call rests on the fitted dose curve; in most records, active means well fitted activation curve with a large enough effect; inconclusive means small, poorly fitted or top-dose-only effect; inactive means no such curve, though single readings can be large or run the other way. Potencies of inconclusive entries are left out as doubtful fits.

Assay: A quantitative high throughput screen for small molecules that induce DNA re-replication in MCF 10a normal breast cells. Further: nearly all actives have a fitted effect of over 50% in size.
Settings: MCF 10A DNA re-replication, Hoechst nuclear intensity, 48 h; series mostly up to 46.1 µM
Potency means the concentration at half of the fitted maximal effect; tags describe the fitted curve by direction and shape.

SMILES	Potency
O=C(CCN1C(=O)c2ccccc2S1(=O)=O)NCc1ccco1	inconclusive [activator, full curve]
COc1ccc(NC(=O)c2c(NC(=O)CNCC(C)C)sc3c2CCC3)c(OC)c1	inconclusive [activator, full curve, poor fit]
Nc1nc(COC(=O)C2CC(=O)N(Cc3ccccc3Cl)C2)nc(Nc2ccccc2)n1 (stereo not drawn)	inconclusive [activator, full curve, poor fit]
CCCN(CCC)S(=O)(=O)c1ccc(C(=O)N2CC3CCC(CC3)C2)cc1	inconclusive [activator, single point]
Cn1c(=O)n(Cc2ccc(F)cc2)c(=O)c2c1nc1n2CCN1Cc1ccco1	inconclusive [activator, partial curve, poor fit]
O=S(=O)(c1ccc(Oc2ncnc3scc(-c4ccccc4)c23)cc1)N1CCOCC1	active: 20.6 µM
Cc1c(Cn2ccnc2)c2ccccc2n1CCC(=O)O	inactive
CC1=C(C)/C(=N/OC(=O)c2cccc([N+](=O)[O-])c2)C=CC1=O	active: 8.2 µM
O=C(O)Cc1ccc(N=Cc2c(O)ccc3ccccc23)cc1	inconclusive [activator, partial curve, poor fit]
CCOC(=O)C1=C(O)c2ccccc2C(=O)/C1=C\c1ccc(CC)cc1	active: 8.2 µM
O=C(NN=Cc1ccccc1)C(Oc1ccccc1)c1ccccc1 (stereo not drawn)	inconclusive [activator, partial curve]
COC(=O)CS(=O)(=O)c1nnc([C@H](Cc2ccccc2)NC(=O)OC(C)(C)C)o1	active: 13 µM
CCN(C(=O)c1cc2c(=O)[nH]c3ccc(C)cc3c2s1)c1cccc(C)c1	inconclusive [activator, single point]
COc1ccccc1NC(=O)C1CC(C(C)C)OC1=O (stereo not drawn)	inconclusive [activator, single point]
C=C[C@@H]1c2c(F)cccc2N(S(=O)(=O)c2ccc(C)cc2)[C@H](c2ccc(OC(C)=O)cc2)C1(C#N)C#N	inconclusive [activator, full curve, poor fit]
COc1ccc(OCC(=O)Nc2cc(OC)cc(OC)c2)cc1	inactive
N#CC1=C(N)N=C(SCc2cccc3ccccc23)C(C(N)=O)C12CCCCC2 (stereo not drawn)	inconclusive [activator, single point]
N#Cc1c(SCC(=O)N2CCCCC2)nsc1SCC(=O)N1CCCCC1	inconclusive [activator, partial curve]
